Assay results published in PubChem BioAssay AID212 (DTP/NCI, 2004).
Inconclusive results are not listed. The source holds more than one record for some entries. This list holds those alone. There may be further records. Results that share an entry repeat one measurement (runs, samples, wells, individuals or studies). Counts like (3×) say how often a value occurs here.

Tested on: BDF1 mice, colon carcinoma 38 sc, T/C %
Test: NCI In Vivo Anticancer Drug Screen. Data for tumor model Colon Carcinoma 38 (subcutaneous) in B6D2F1 (BDF1) mice
Details: endpoint: median tumor weight (est.), higher = larger tumour
Outline: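 Ratio of survival or tumor size, compound-treated animals relative to vehicle controls, in tumor-bearing mice.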

[1] = dose: 12.5 mg/kg/injection, schedule: Q07DX002 (ip), vehicle: saline
[2] = dose: 50.0 mg/kg/injection, schedule: Q07DX002 (ip), vehicle: saline
[3] = dose: 2.5 mg/kg/injection, schedule: Q07DX002 (ip), vehicle: saline
[4] = dose: 100.0 mg/kg/injection, schedule: Q07DX002 (ip), vehicle: Klucel (hydroxypropylcellulose) (HPC)
[5] = dose: 200.0 mg/kg/injection, schedule: Q07DX002 (ip), vehicle: Klucel (hydroxypropylcellulose) (HPC)
[6] = dose: 12.5 mg/kg/injection, schedule: Q07DX002 (ip), vehicle: saline with Tween-80
[7] = dose: 100.0 mg/kg/injection, schedule: Q07DX002 (ip), vehicle: saline with Tween-80
[8] = dose: 400.0 mg/kg/injection, schedule: Q07DX002 (ip), vehicle: saline with Tween-80
[9] = dose: 25.0 mg/kg/injection, schedule: Q07DX002 (ip), vehicle: saline with Tween-80
[10] = dose: 25.0 mg/kg/injection, schedule: Q07DX002 (ip), vehicle: Klucel (hydroxypropylcellulose) (HPC)
[11] = dose: 100.0 mg/kg/injection, schedule: Q07DX002 (ip), vehicle: saline
[12] = dose: 25.0 mg/kg/injection, schedule: Q07DX002 (ip), vehicle: saline

NNC(=O)c1ccncc1
T/C (dose: 18.5 mg/kg/injection, schedule: Q07DX002 (ip), vehicle: saline): 52 % of control and 118 % of control

NC(=O)c1ncn2c(=O)n(CCCl)nnc12
T/C [1]: 21 % of control and 85 % of control | T/C [2]: 2 % of control and 31 % of control

CC(C)CC(NC(=O)CF)C(=O)O (stereo not given)
T/C [3]: 75 % of control and 108 % of control

O=c1[nH]c(=O)n(C2CC(O)C(CO)O2)cc1Br (stereo not given)
T/C [4]: 39 % of control and 181 % of control | T/C [5]: 57 % of control and 122 % of control | T/C (dose: 1600.0 mg/kg/injection, schedule: Q07DX002 (ip), vehicle: Klucel (hydroxypropylcellulose) (HPC)): 90 % of control and 157 % of control

CCCCOC(=O)/C=C(\Br)C(=O)OCCCC
T/C [6]: 86 % of control and 112 % of control

CC1CN1C(=O)NCCCCCCNC(=O)N1CC1C (stereo not given)
T/C (dose: 2.5 mg/kg/injection, schedule: Q07DX003 (ip), vehicle: Klucel (hydroxypropylcellulose) (HPC)): 65 % of control and 91 % of control | T/C (dose: 10.0 mg/kg/injection, schedule: Q07DX003 (ip), vehicle: Klucel (hydroxypropylcellulose) (HPC)): 37 % of control and 71 % of control

COCCCNC1=C(C#N)C(=O)NC(c2cccc([N+](=O)[O-])c2)S1 (stereo not given)
T/C [7]: 84 % of control and 121 % of control | T/C [8]: 121 % of control and 169 % of control

O=CN(SSN(C=O)C1CCCCC1)C1CCCCC1
T/C [6]: 75 % of control and 169 % of control | T/C [7]: 77 % of control and 106 % of control | T/C [8]: 60 % of control and 171 % of control

CN1CCN(Cc2nc3cccc4c3c([n+]2[O-])-c2ccccc2-4)CC1
T/C [9]: 44 % of control, 100 % of control, 185 % of control | T/C (dose: 50.0 mg/kg/injection, schedule: Q07DX002 (ip), vehicle: saline with Tween-80): 68 % of control, 69 % of control, 150 % of control | T/C [7]: 39 % of control, 84 % of control, 85 % of control

Nc1ccccc1N
T/C [4]: 74 % of control and 104 % of control | T/C [5]: 50 % of control and 93 % of control

CNC(=O)OCc1c(COC(=O)NC)c(C)n(-c2ccc(OC)cc2)c1C
T/C [10]: 70 % of control and 105 % of control

CC(=O)NC(C=O)OCC=O (stereo not given)
T/C (dose: 25.0 mg/kg/injection, schedule: Q07DX002 (ip), vehicle: water): 84 % of control and 176 % of control | T/C (dose: 50.0 mg/kg/injection, schedule: Q07DX002 (ip), vehicle: water): 78 % of control and 105 % of control | T/C (dose: 100.0 mg/kg/injection, schedule: Q07DX002 (ip), vehicle: water): 72 % of control and 111 % of control | T/C (dose: 200.0 mg/kg/injection, schedule: Q07DX002 (ip), vehicle: water): 68 % of control and 99 % of control

O=C1C=CC(=O)N1c1ccc(Cl)cc1
T/C (dose: 2.5 mg/kg/injection, schedule: Q07DX002 (ip), vehicle: Klucel (hydroxypropylcellulose) (HPC)): 34 % of control, 56 % of control, 108 % of control | T/C (dose: 5.0 mg/kg/injection, schedule: Q07DX002 (ip), vehicle: Klucel (hydroxypropylcellulose) (HPC)): 39 % of control (2×) and 83 % of control

C=Cc1cnc([N+](=O)[O-])n1C
T/C [4]: 67 % of control, 71 % of control, 109 % of control | T/C [5]: 34 % of control, 76 % of control, 108 % of control

C1OC1C1CO1 (stereo not given)
T/C [3]: 55 % of control and 107 % of control | T/C (dose: 5.0 mg/kg/injection, schedule: Q07DX002 (ip), vehicle: saline): 72 % of control and 176 % of control

CC(=O)N(C)c1ccc(Nc2cc(C)[nH]c3ccc4ncnc4c23)cc1
T/C [2]: 82 % of control and 122 % of control | T/C [11]: 48 % of control and 104 % of control

CC(=O)OCC1OC([S-])C(OC(C)=O)C(OC(C)=O)C1OC(C)=O.CC[PH+](CC)CC.CC[PH+](CC)CC.[Au].[Au] (stereo not given)
T/C (dose: 1.25 mg/kg/injection, schedule: Q07DX002 (ip), vehicle: Klucel (hydroxypropylcellulose) (HPC)): 101 % of control and 161 % of control

O=C1CN(CN2CCOCC2)C(=O)CN1CN1CCOCC1
T/C [12]: 62 % of control and 113 % of control | T/C (dose: 200.0 mg/kg/injection, schedule: Q07DX002 (ip), vehicle: saline): 78 % of control and 152 % of control

CC[C@@]1(O)C[C@H](OC2CC(N(C)C)C(OC3CC(O)C(OC4CCC(=O)C(C)O4)C(C)O3)C(C)O2)c2c(cc3c(c2O)C(=O)c2c(O)cccc2C3=O)[C@H]1C(=O)OC (stereo not given in full)
T/C (dose: 1.5 mg/kg/injection, schedule: Q07DX002 (ip), vehicle: water): 72 % of control and 103 % of control | T/C (dose: 3.0 mg/kg/injection, schedule: Q07DX002 (ip), vehicle: water): 20 % of control and 109 % of control | T/C (dose: 6.0 mg/kg/injection, schedule: Q07DX002 (ip), vehicle: water): 43 % of control and 121 % of control

COc1cc(OC)c(OC)cc1/C=C\c1ccnc2ccccc12
T/C [5]: 70 % of control and 115 % of control

COc1ccc(C(=O)c2no[n+]([O-])c2C(=O)c2ccc(OC)cc2)cc1
T/C [9]: 56 % of control and 84 % of control | T/C [7]: 52 % of control and 101 % of control | T/C (dose: 200.0 mg/kg/injection, schedule: Q07DX002 (ip), vehicle: saline with Tween-80): 39 % of control and 104 % of control | T/C [8]: 61 % of control and 121 % of control

[O-][n+]1c(CN2CCCCC2)nc2cccc3c2c1-c1ccccc1-3
T/C [9]: 51 % of control and 166 % of control | T/C [7]: 42 % of control and 95 % of control

O=C(O)Cc1cccc2c(=O)c(-c3ccccc3)c(-c3ccccc3)oc12
T/C [4]: 86 % of control and 117 % of control | T/C [5]: 52 % of control and 117 % of control

Cc1ccc2c(ccc(CC(=S)[S-])[n+]2C)c1
T/C (dose: 12.5 mg/kg/injection, schedule: Q07DX002 (ip), vehicle: Klucel (hydroxypropylcellulose) (HPC)): 85 % of control and 114 % of control | T/C [10]: 79 % of control and 187 % of control

COc1cc2cc3cc4cc(OC)c(OC)cc4c(C)[n+]3cc2cc1OC (tested in a mixture with another compound)
T/C [12]: 66 % of control and 102 % of control

CCCCCC#CC1OC12CCCCC2 (stereo not given)
T/C [1]: 38 % of control and 85 % of control | T/C [11]: 28 % of control and 85 % of control

CO[C@H]1C[C@](C)(O)Cc2cc3c(c(O)c21)C(=O)c1c(O)cc2c(c1C3=O)O[C@@H]1O[C@@]2(C)[C@H](O)[C@@H](N(C)C)[C@@H]1O
T/C (dose: 6.25 mg/kg/injection, schedule: Q07DX002 (ip), vehicle: other): 44 % of control and 73 % of control

N[C@@H](Cc1ccc(N(CCCl)CCCl)cc1)C(=O)O
T/C (dose: 1.0 mg/kg/injection, schedule: Q07DX002 (ip), vehicle: saline): 51 % of control and 83 % of control | T/C (dose: 1.88 mg/kg/injection, schedule: Q07DX002 (ip), vehicle: Klucel (hydroxypropylcellulose) (HPC)): 66 % of control and 110 % of control | T/C (dose: 2.0 mg/kg/injection, schedule: Q07DX002 (ip), vehicle: saline): 58 % of control, 82 % of control, 153 % of control | T/C (dose: 2.5 mg/kg/injection, schedule: Q07DX002 (ip), vehicle: suspension in saline): 63 % of control, 71 % of control, 150 % of control | T/C (dose: 4.0 mg/kg/injection, schedule: Q07DX002 (ip), vehicle: saline): 40 % of control, 65 % of control, 76 % of control | T/C (dose: 5.0 mg/kg/injection, schedule: Q07DX002 (ip), vehicle: suspension in saline): 53 % of control, 69 % of control, 82 % of control | T/C (dose: 8.0 mg/kg/injection, schedule: Q07DX002 (ip), vehicle: saline): 23 % of control, 47 % of control, 59 % of control | T/C (dose: 10.0 mg/kg/injection, schedule: Q07DX002 (ip), vehicle: suspension in saline): 19 % of control, 37 % of control, 51 % of control

Cc1ccc(S(=O)(=O)N/N=C/C(Br)=C(/Br)C(=O)O)cc1
T/C (dose: 50.0 mg/kg/injection, schedule: Q07DX002 (ip), vehicle: Klucel (hydroxypropylcellulose) (HPC)): 89 % of control and 123 % of control

Nc1nc(-c2cccc3ccccc23)cc2ccccc12
T/C [7]: 36 % of control and 116 % of control | T/C [8]: 45 % of control and 99 % of control
